Hit rate of the full screen: of about 120,000 compounds, about 5,300 (4.4%) were called active. Inconclusive means that the source gave no clear call. Such entries were picked first, then a sample of the others. Calls follow the shape of the dose curve; as a rule, active = well fitted inhibition curve with a large enough effect; inconclusive = small, poorly fitted or top-dose-only effect; inactive = no such curve, though single readings can be large or run the other way. Potencies of inconclusive entries are doubtful fits and often do not repeat.
Test: qHTS Primary assay for Inhibitors of Plasmodium falciparum Dd2 growth in vitro; also: nearly all actives have a fitted effect of over 65% in size
Conditions: P. falciparum Dd2 growth, SYBR Green, 72 h; series mostly up to 28.9 µM
How it was run: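 Infected erythrocytes (Dd2, 0.3% parasitemia, 2.5% hematocrit final) are added to compound in RPMI-1640/Albumax II medium, grown 72 h at 37C in low oxygen, then lysed with saponin/Triton-X containing SYBR Green and read by fluorescence.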
Potency is read from the fitted curve at half-maximal effect; tags tell the direction and shape of the fitted curve.

| Compound | Potency |
| --- | --- |
| O=C(NCc1ccc(-c2cnc3c(Oc4ccccc4)nccn23)cc1)c1cccc(O)c1 | inconclusive: 3.55 µM [inhibitor, full curve, poor fit] |
| Cc1noc(C)c1S(=O)(=O)N1CCC2(C1)OC(=O)Nc1cnccc12 (configuration not stated) | inactive |
| COCc1cc(C[C@@H]2CC[C@H](O)[C@@H](CNCc3ccc(F)cc3)O2)no1 | inconclusive: 2.51 µM [inhibitor, partial curve, poor fit] |
| CCCCOC(=O)c1ccc(NC(=O)c2ccc3c(c2)CCN3S(=O)(=O)c2ccccc2)cc1 | inconclusive: 17.8 µM [inhibitor, single point] |
| CCN1c2cc(C(=O)NCc3ccc(SC)cc3)ccc2C(=O)N2CCCCCC21 (configuration not stated) | inconclusive: 11.2 µM [inhibitor, single point] |
| COc1ccc(C(=O)N2CCCC(c3nc(-c4cnccn4)no3)CCNC(=O)CC2)cc1 (configuration not stated) | inactive |
| COC(=O)c1ccc(NC(=O)N2CCc3c([nH]c4ccccc34)C2c2ccc(C)cc2)cc1 (configuration not stated) | inconclusive: 2.82 µM [inhibitor, partial curve, poor fit] |
| COc1cccc(-n2cc(C(=O)NCCc3cccc(C)c3)c3ccccc3c2=O)c1 | inconclusive: 11.2 µM [inhibitor, single point] |
| COC(=O)C1=C(C)N=C2SC=C(CC(=O)NC3CCCCC3)N2C1c1cccc(OC)c1 (configuration not stated) | inconclusive: 3.98 µM [inhibitor, single point] |
| Cc1ccc(CCNC(=O)c2cc3n(n2)CC(c2ccc4c(c2)OCO4)OC3)cc1 (configuration not stated) | inactive |
| O=C(NCc1cc(F)ccc1F)C1CCN(C(=O)c2ncn3c2COC(c2ccc(F)cc2)C3)CC1 (configuration not stated) | inactive |
| Cc1[nH]c(=O)c(C#N)cc1C(=O)N1CCC2(CC1)C(=O)Nc1ccccc12 | inactive |
| CN1c2cccnc2CN(Cc2cccc(Cl)c2)CC[C@H]1CO | inconclusive: 22.4 µM [inhibitor, single point] |
| CCc1ccccc1NC(=O)CSc1nc2c(oc3ccccc32)c(=O)n1-c1ccccc1 | inconclusive: 10 µM [inhibitor, single point] |
| COc1ccc(C2(C(=O)N3C[C@@H](Oc4ccccc4)C[C@H]3C(=O)N3CCCC3)CC2)cc1 | inconclusive: 10 µM [inhibitor, single point] |
| COc1cc(C(=O)NCC(c2ccc(N(C)C)cc2)N2CCCC2)cc(OC)c1OC (configuration not stated) | inconclusive: 11.2 µM [inhibitor, single point] |
| CCOc1ccc(NC(=O)CSc2nc3nc(C)c(Cc4ccccc4)c(C)n3n2)cc1 | inconclusive: 8.91 µM [inhibitor, single point] |
| CC(=O)c1ccc(NC(=O)CN2C(=O)c3cccnc3Sc3ccccc32)cc1 | inconclusive: 8.91 µM [inhibitor, single point] |
| COc1cccc(CN2CCOCCNC(=O)[C@H]3CCCC[C@H]32)c1OC | inactive |
| CCC1CCCCN1CCCNC(=O)c1cc2c(Cl)nc3ccc(C)cc3c2s1 (configuration not stated) | active: 3.55 µM |
| O=[S+]([O-])(c1cccnc1)c1nnn2c1nc(NC1CCCC1)c1ccccc12 | inactive |

| Compound | Potency |
| --- | --- |
| CCC1CCCCN1CCCNC(=O)c1ccc2c(c1)N(Cc1cccc(C)c1)C(=O)c1ccccc1S2(=O)=O (configuration not stated) | active: 3.98 µM |
| Cc1ccc(-c2nc(C3CC(=O)N(c4ccc(F)c(Cl)c4)C3)no2)cc1C (configuration not stated) | inactive |
| O=C(c1cccnc1)N1CCCCC1c1nc(C2CC2)n[nH]1 (configuration not stated) | inactive |
| Brc1ccc(-c2ccnc3nc(C4CCCO4)nn23)s1 (configuration not stated) | inconclusive: 5.01 µM [inhibitor, partial curve, poor fit] |
| Cc1nc(C(C)C)cc(N2CCC(Oc3cccc(F)c3)(C(=O)O)CC2)n1 | inactive |
| CN(C)c1ccc(-c2nc(-c3ccncc3)no2)cc1[N+](=O)[O-] | inconclusive: 11.2 µM [inhibitor, single point] |
| O=C1Nc2ccccc2O[C@H]2C[C@@H]1N(Cc1ccccc1)C2 | inactive |
| CCS(=O)(=O)Nc1ccc(C2(C(=O)N3CCN(CC(C)C)CC3)CCCCC2)cc1 | inconclusive: 10 µM [inhibitor, single point] |
| COc1ccc(NC(=O)c2ccc3c(c2)n(C)c(=O)c2ccnn23)cc1OC | inconclusive: 1.58 µM [inhibitor, full curve] |
| COc1ccc(NC(=O)c2c(NCc3cccc(OC)c3)sc3c2CCC3)cc1 | inconclusive: 10 µM [inhibitor, single point] |
| CCc1ccc(S(=O)(=O)Nc2cc(-c3cn4ccccc4n3)ccc2C)cc1 | inconclusive: 0.0891 µM [inhibitor, full curve] |
| CCCOCCCNC(=O)c1c(C)noc1-c1cc(OC)cc(OC)c1 | inconclusive: 5.62 µM [inhibitor, partial curve] |
| COCCN1C(=O)CCc2cc(NC(=O)c3ccc4c(c3)OCO4)ccc21 | inconclusive: 0.126 µM [inhibitor, full curve, poor fit] |
| COc1ccc(C)c2sc(N(Cc3cccnc3)C(=O)COc3ccccc3)nc12 | inconclusive: 10 µM [inhibitor, single point] |
| O=C(NCc1ccc2c(c1)OCO2)C1CN(Cc2ccccc2)C(=O)N1 (configuration not stated) | inactive |
| COc1cccc(NC(=O)c2cnc3c(c2)N([S+](=O)([O-])c2cccnc2)CCC3)c1 | inconclusive: 5.01 µM [inhibitor, full curve, poor fit] |
| COc1cccc(Nc2cc(-c3ccccc3)nc(C)n2)c1 | inconclusive: 17.8 µM [inhibitor, single point] |
| CC(C)(C)c1cnc([C@@H]2COCCN2C2CCCCC2)[nH]1 | inconclusive: 2.82 µM [inhibitor, full curve] |
| COc1cccc(C(=O)Nc2ccc3nc(SCc4ccc(C)cc4)sc3c2)c1 | inconclusive: 10 µM [inhibitor, single point] |
| FC(F)(F)c1ccc(CNc2cc(Cl)nc3ccnn23)cc1 | inconclusive: 22.4 µM [inhibitor, single point] |
| CC(=O)N1CCCc2cc(S(=O)(=O)NCc3ccc(N(C)C)cc3)ccc21 | inactive |
